{"source": "paper PMC11995724", "about": "“Antibiotic target discovery by integrated phenotypic and activity-based profiling of electrophilic fragments” (Cell chemical biology, 2025)", "note": "Screen size: about 3,200 compounds; about 110 (3.4%) showed an effect of 50% or more. The list shows a part of the results."}
{"tested_on": "T1, V. cholerae SAD30", "T1 construct": "SAD30", "design": "species or system S. aureus MSSA476 (TSB) or V. cholerae SAD30 (LB); 384-well bacterial growth screen at 25 uM, OD600 relative to DMSO control", "settings": "relative growth, OD600, LB; 25 µM; inhibitor", "units": {"% of control remaining": "%"}}
{"smiles": "COc1ccc(C=C(C#N)C(=O)Nc2cccc(C(F)(F)F)c2)cc1", "note": "[8-A03, 2-cyano-3-(4-methoxyphenyl)-N-[3-(trifluoromethyl)phenyl]prop-2-enamide]", "% of control remaining": 102.039}
{"smiles": "N#CC(=Cc1cccc(Cl)c1Cl)C(N)=O", "note": "[8-J21, 2-cyano-3-(2,3-dichlorophenyl)prop-2-enamide]", "% of control remaining": 76.2067}
{"smiles": "C=CC(=O)NC1CS(=O)(=O)C1", "note": "[3-P18, N-(1,1-dioxo-1lambda6-thietan-3-yl)prop-2-enamide]", "% of control remaining": 112.909}
{"smiles": "C=CC(=O)N1CCC(C(=O)Nc2ncc(CCO)s2)CC1", "note": "[2-A08, N-[5-(2-hydroxyethyl)-1,3-thiazol-2-yl]-1-(prop-2-enoyl)piperidine-4-carboxamide]", "% of control remaining": 94.9821}
{"smiles": "C=CC(=O)N1CCC(Cn2nc(C)cc2C)CC1", "note": "[2-C17, 1-{4-[(3,5-dimethyl-1H-pyrazol-1-yl)methyl]piperidin-1-yl}prop-2-en-1-one]", "% of control remaining": 93.9014}
{"smiles": "O=C(CCl)N[C@H](CO)Cc1ccccc1", "note": "[6-G20, 2-chloro-N-[(2S)-1-hydroxy-3-phenylpropan-2-yl]acetamide]", "% of control remaining": 84.6336}
{"smiles": "O=C1NC(=O)c2cc(NC(=O)N3CCSSCC3)ccc21", "note": "[10-K22, N-(1,3-dioxo-2,3-dihydro-1H-isoindol-5-yl)-1,2,5-dithiazepane-5-carboxamide]", "% of control remaining": 100.526}
{"smiles": "C=CC(=O)NCC(C)Cn1ccc(C)n1", "note": "(stereo not drawn) [2-D03, N-[2-methyl-3-(3-methyl-1H-pyrazol-1-yl)propyl]prop-2-enamide]", "% of control remaining": 120.149}
{"smiles": "CC(Cl)C(=O)Nc1ccc2c(c1)ncn2CCN(C)C", "note": "(stereo not drawn) [6-P15, 2-chloro-N-{1-[2-(dimethylamino)ethyl]-1H-1,3-benzodiazol-5-yl}propanamide]", "% of control remaining": 104.048}
{"smiles": "Cc1nnc(C(C)NC(=O)C(C)Cl)s1", "note": "(stereo not drawn) [7-D11, 2-chloro-N-[1-(5-methyl-1,3,4-thiadiazol-2-yl)ethyl]propanamide]", "% of control remaining": 81.282}
{"smiles": "Cn1cc(C=C(C#N)C(=O)N2CCCC2)c(-c2cc3ccccc3o2)n1", "note": "[9-D18, 3-[3-(1-benzofuran-2-yl)-1-methyl-1H-pyrazol-4-yl]-2-(pyrrolidine-1-carbonyl)prop-2-enenitrile]", "% of control remaining": 81.9171}
{"smiles": "Cc1ccc(-c2cc(NC(=O)CCl)n(-c3ccccc3)n2)cc1", "note": "[4-C06, 2-chloro-N-[3-(4-methylphenyl)-1-phenyl-1H-pyrazol-5-yl]acetamide]", "% of control remaining": 101.272}
